# In all, about 76,000 compounds went through this assay and about 1,900 (2.5%) were called active. Inconclusive results, whose numbers are uncertain, are shown with a selection of clear calls. The call rests on the fitted dose curve; in most records, active means well fitted inhibition curve with a large enough effect; inconclusive means small, poorly fitted or top-dose-only effect; inactive means flat fitted curve, though single readings scatter. Where the call is inconclusive, the potency comes from a doubtful curve fit.
# Target: Luciferin 4-monooxygenase (Photinus pyralis) (UniProt P08659)
# Assay: Firefly luciferase inhibition profiling of diverse chemical library using quantitative high-throughput screening; further: nearly all actives have a fitted effect of over 65% in size
# Conditions: purified P. pyralis luciferase, luminescence, biochemical; series mostly up to 115 µM
# Method in brief: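 Inhibitors were tested against purified firefly luciferase in a biochemical, low-substrate format (both substrates at 10uM) and luminescence measured with a CCD imager.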
# Potency means the concentration at half of the fitted maximal effect; tags describe the fitted curve by direction and shape.
# Sequence of UniProt P08659 (P08659 whole entry, looked up): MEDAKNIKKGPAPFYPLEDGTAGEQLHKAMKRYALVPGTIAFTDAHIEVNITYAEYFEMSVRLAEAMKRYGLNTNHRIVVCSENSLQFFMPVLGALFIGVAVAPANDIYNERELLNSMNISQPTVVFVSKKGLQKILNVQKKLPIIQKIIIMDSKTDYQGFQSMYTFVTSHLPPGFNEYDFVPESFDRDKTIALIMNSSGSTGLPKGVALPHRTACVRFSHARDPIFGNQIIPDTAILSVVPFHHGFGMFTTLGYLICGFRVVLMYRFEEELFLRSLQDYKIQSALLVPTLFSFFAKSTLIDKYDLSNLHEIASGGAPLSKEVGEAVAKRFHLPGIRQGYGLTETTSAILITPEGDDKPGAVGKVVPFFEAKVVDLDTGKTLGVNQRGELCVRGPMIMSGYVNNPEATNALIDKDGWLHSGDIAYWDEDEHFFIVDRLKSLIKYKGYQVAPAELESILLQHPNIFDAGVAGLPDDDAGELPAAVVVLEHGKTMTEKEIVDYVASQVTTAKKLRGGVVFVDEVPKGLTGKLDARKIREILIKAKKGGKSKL
row,Structure (SMILES),Potency
1,COc1ccc(CC(=O)Nc2cnc(-c3ccc(C)cc3)nc2)cc1,"inconclusive: 31.6 µM [inhibitor, partial curve]"
2,CCOC(=O)CNC(=O)CCc1conc1-c1ccc(OC)cc1,"inconclusive: 56.2 µM [inhibitor, partial curve]"
3,COc1ccc(CN2CCc3nc(C(=O)NCc4ccncc4)oc3CC2)cc1,inactive
4,COc1cccc(CCC(=O)N[C@@H]2CN(c3ncccn3)C[C@H]2CO)c1,inactive
5,O=C(c1cccc(Cl)c1)N1CCN(C(=O)c2nnn3c2COC(c2ccccc2)C3)CC1 (stereo unspecified),inactive
6,CCCN1C(=O)CCc2cc(NC(=O)c3ccn(CC)n3)ccc21,"inconclusive: 50.1 µM [inhibitor, partial curve]"
7,COc1ccc(-n2cc(-c3ccnc(NCCC4CCCN4C)n3)cn2)cc1 (stereo unspecified),"inconclusive: 50.1 µM [inhibitor, partial curve]"
8,COc1ccc(-c2cc(-c3cccc4[nH]ncc34)cn3cncc23)cn1,"inconclusive: 63.1 µM [inhibitor, partial curve]"
9,CCc1nc2c(NC(=O)Nc3cccc(C(=O)OC)c3)cccn2n1,"inconclusive: 25.1 µM [inhibitor, partial curve]"
10,c1ccc(CO[C@H]2COCCN(c3nc4ccccc4s3)C2)cc1,"inconclusive: 112 µM [inhibitor, partial curve]"
11,CCS(=O)(=O)N1C[C@@H](C(=O)NCc2ccc(C(C)C)cc2)[C@H](c2ccncc2)C1,inactive
12,COc1cccc(CN2CC[C@H](c3nc4cc(Cl)ccc4o3)C2)c1,"inconclusive: 70.8 µM [inhibitor, partial curve]"
13,CC(C)CNc1ccc2c(n1)C(C)(C(=O)NCc1ccco1)CN(Cc1ccccc1)C2 (stereo unspecified),inactive
14,COCCNC(=O)c1cc(-c2ccc(F)cc2OC)cc2ncn(C)c12,inactive
15,Cn1ccnc1-c1ccc(N2CCC(C(O)Cc3ccccc3)CC2)nn1 (stereo unspecified),"inconclusive: 15.8 µM [inhibitor, full curve]"
16,CCCCNC(=O)COc1ccc(NC(=O)C2CC2)cn1,inactive
17,Cc1ccc(-n2cccc2CC(=O)N(C)Cc2ccco2)cc1,"inconclusive: 39.8 µM [inhibitor, partial curve]"
18,Cc1ccc(Cl)cc1NC(=O)Cn1nc2c(cc1=O)CCCCC2,inactive
19,CCOc1ccc(C(=O)N2CCC[C@H]2c2nc(-c3ccccc3Cl)no2)cc1,"inconclusive: 35.5 µM [inhibitor, partial curve]"
20,CC(C)NC(=O)C1COC2(CCN(C(=O)c3cccc(F)c3)CC2)N1C(=O)c1ccccc1 (stereo unspecified),inactive
21,Oc1ccccc1CNC1(Cc2cc(-c3ccc(F)cc3)on2)COC1,inactive
22,CC(C)CC(=O)N1CCCCCNC(=O)[C@H]2C[C@H](C(=O)N3CCc4ccccc4C3)C[C@H]21,inactive
23,CCc1[nH]c2ccc(CNC(=O)c3scc4c3OCCO4)cc2c1C,"inconclusive: 50.1 µM [inhibitor, partial curve]"

row,Structure (SMILES),Potency
1,CN1c2cccnc2CN(Cc2ccc(OC(F)(F)F)cc2)CC[C@H]1CO,inactive
2,Cc1ccc(CN2CCN(C(=O)C3Cn4cccc4C(=O)N3Cc3cccnc3)CC2)cc1 (stereo unspecified),inactive
3,Cc1ncsc1CCC(=O)N[C@@H]1CCOC[C@H]1OCC(=O)O,"inconclusive: 44.7 µM [inhibitor, partial curve, poor fit]"
4,Cc1ccc(-c2noc([C@@H]3C[C@H](NC(=O)CC(C)(C)CC(=O)O)CN3C)n2)cc1,"inconclusive: 70.8 µM [inhibitor, partial curve]"
5,COc1ccnc(-c2nnc3ccc(Nc4cc(OC)c(OC)c(OC)c4)nn23)c1,inactive
6,COc1ccc(CCNC(=O)C2CCCCC(=O)N2C)cc1OC (stereo unspecified),inactive
7,COc1cccc(-c2cc(C3CCN(C(=O)Nc4cccc(C)c4)CC3)[nH]n2)c1,"inconclusive: 50.1 µM [inhibitor, partial curve, poor fit]"
8,Cc1ccc(C2Cn3nnc(C(=O)N4CCC(C(=O)Nc5cc(F)cc(F)c5)CC4)c3CO2)cc1 (stereo unspecified),active: 28.2 µM
9,COc1cccc(-c2ccc(-c3nc(C4CCOC4)no3)o2)c1 (stereo unspecified),active: 4.47 µM
10,Cc1ccc(-c2noc(C(C)Oc3ccccc3)n2)nn1 (stereo unspecified),"inconclusive: 89.1 µM [inhibitor, single point]"
11,Cn1nccc1C(=O)NC1CCCN(c2cc(-c3ccc(F)cc3)[nH]n2)C1 (stereo unspecified),"inconclusive: 44.7 µM [inhibitor, partial curve]"
12,C=CCn1nc(C(=O)N2CCOCC2)c2c1CCC(NCC1(c3ccccc3)CCOCC1)C2 (stereo unspecified),inactive
13,c1ccc2c(-c3nc4ccncc4[nH]3)c[nH]c2c1,"inconclusive: 50.1 µM [inhibitor, partial curve]"
14,CN(C)[C@@H]1CN(C(=O)C2CCC2)CC[C@@H]1CO,"inconclusive: 56.2 µM [inhibitor, partial curve]"
15,CCn1ncc(NC(=O)Cn2ncc3cc(-c4ccc(N(C)C)cc4)ccc32)n1,active: 0.251 µM
16,CC(NC(=O)C1CCN(C(=O)c2ncn3c2COC(c2ccccc2)C3)CC1)c1ccc(F)cc1 (stereo unspecified),active: 12.6 µM
17,CSc1cccc(NC(=O)N[C@H]2CCN(C(=O)c3cccn3C)[C@@H]2C(=O)N[C@@H](Cc2cccs2)C(N)=O)c1,inactive
18,O=C(C1CCC1)N1CCCC(n2cc(-c3nc(-c4ccccc4)no3)nn2)C1 (stereo unspecified),active: 39.8 µM
19,CCO[C@H]1CN(C(=O)CCc2ccc(-c3ccccc3)cc2)C[C@@H]1O,"inconclusive: 44.7 µM [inhibitor, partial curve, poor fit]"
20,CCN(CC)C[C@H]1O[C@H](Cc2cc(-c3ccc(F)cc3)on2)CC[C@@H]1O,"inconclusive: 70.8 µM [inhibitor, partial curve, poor fit]"
21,COc1ccccc1OCC(=O)c1ccc2c(c1)N(CCCC(=O)N1CCC(C)CC1)C(=O)CO2,"inconclusive: 44.7 µM [inhibitor, partial curve, poor fit]"
22,O=C(c1ccsc1)N1CCC(Oc2ccccc2-c2nc(C3CC3)no2)C1 (stereo unspecified),inactive
23,COc1ccc(-c2ccc3c(c2)C(=O)N2CCN(C(=O)c4ccccc4)C[C@@H]2C(=O)N3)cc1,"inconclusive: 44.7 µM [inhibitor, partial curve]"

# From PubChem BioAssay AID1347043 (National Center for Advancing Translational Sciences (NCATS), 2019)
